# Assay results published in the antibiotic and cytotoxicity screens of Wong et al. (2023).
# The other results are listed elsewhere or left out.
# Assays:
# HSkMC = human skeletal muscle cells; assay: cytotoxicity call (relative viability < 0.9); settings: 10 µM
# S. aureus RN4220 = assay: growth inhibition call (relative growth <= 0.2); settings: 50 µM
Structure (SMILES),cytotoxicity call (HSkMC),growth inhibition call (S. aureus RN4220)
C[C@@H]1CCCCO[C@H](CN(C)S(=O)(=O)c2ccccc2)[C@@H](C)CN([C@@H](C)CO)C(=O)c2cc(NC(=O)CCC(F)(F)F)ccc2O1,inactive,inactive
C[C@H]1CN([C@@H](C)CO)C(=O)c2cc(C#CCC3CCCC3)cnc2O[C@@H]1CN(C)C(=O)c1cnccn1,inactive,inactive
CC(=O)N[C@H]1[C@@H](OCc2ccccc2)O[C@H](C(=O)O)[C@@H](OC(C)=O)[C@@H]1OC(C)=O,inactive,inactive
C[C@@H]1CCCCO[C@@H](CN(C)S(=O)(=O)c2cccs2)[C@@H](C)CN([C@@H](C)CO)C(=O)c2cc(NC(=O)C3CCCCC3)ccc2O1,inactive,inactive
Cc1noc(C)c1NC(=O)N(C)C[C@H]1Oc2ccc(NC(=O)C3CC3)cc2C(=O)N([C@H](C)CO)C[C@@H]1C,inactive,inactive
C[C@@H]1CN([C@@H](C)CO)C(=O)c2c(c3ccccc3n2C)-c2ccccc2CO[C@H]1CN(C)Cc1cccc(F)c1,inactive,inactive
C[C@H](CO)N1C[C@H](C)[C@H](CN(C)C(=O)Nc2cccc3ccccc23)Oc2ccc(NS(=O)(=O)c3ccccc3)cc2C1=O,inactive,inactive
C[C@H]1CCCCO[C@@H](CN(C)S(=O)(=O)c2ccc(F)cc2)[C@@H](C)CN([C@@H](C)CO)C(=O)c2cc(NC(=O)CCC(F)(F)F)ccc2O1,inactive,inactive
Cc1nn(C)cc1NC(=O)C[C@H]1CC[C@H]2[C@@H](COc3ccc(NC(=O)C4CCOCC4)cc3C(=O)N2C)O1,inactive,inactive
C[C@@H]1CN([C@H](C)CO)C(=O)c2cc(NS(=O)(=O)c3ccc(F)cc3)ccc2O[C@H]1CN(C)S(=O)(=O)c1ccccc1,inactive,inactive
Fc1ccc(Nc2ncnc3sc(-c4ccccc4)cc23)cc1,active,inactive
COc1ccc(CN2C[C@@H](C)[C@@H](OC)CN(C)C(=O)c3cc(NC(=O)c4nc5ccccc5s4)ccc3OC[C@@H]2C)cc1,inactive,inactive
C[C@H]1CN([C@@H](C)CO)C(=O)c2cccc(NS(=O)(=O)c3ccc(F)cc3)c2O[C@H]1CN(C)Cc1ccc(-c2ccccc2)cc1,inactive,inactive
COc1ccc(NC(=O)Nc2ccc3c(c2)[C@@H]2C[C@H](CC(=O)NCc4ccccn4)O[C@H](CO)[C@@H]2O3)cc1,inactive,inactive
COc1cccc(C(=O)Nc2ccc3c(c2)C(=O)N(C)[C@@H]2CC[C@@H](CC(=O)NCC(F)(F)F)O[C@H]2CO3)c1,inactive,inactive
CN(C)CCNC(=O)[C@H]1Cn2ccnc2C2(CCN(Cc3nccs3)CC2)O1,inactive,inactive
Cc1noc(C)c1NC(=O)Nc1ccc2c(c1)C(=O)N([C@H](C)CO)C[C@@H](C)[C@H](CN(C)Cc1ccc(C(F)(F)F)cc1)O2,inactive,inactive
CC(O)C(=O)Nc1c(I)c(C(=O)NC(CO)CO)c(I)c(C(=O)NC(CO)CO)c1I (configuration not stated),inactive,inactive
Cl.Cl.Fc1ccc(C(c2ccc(F)cc2)N2CCN(CC=Cc3ccccc3)CC2)cc1,inactive,inactive
COc1ccc(NC(=O)Nc2ccc3c(c2)C(=O)N([C@@H](C)CO)C[C@@H](C)[C@H](CN(C)C(=O)Nc2cccc4ccccc24)O3)cc1,inactive,inactive
Cc1ccc(S(=O)(=O)N(C)C[C@H]2OCCCC[C@@H](C)Oc3ccc(NC(=O)NC4CCCCC4)cc3C(=O)N([C@@H](C)CO)C[C@@H]2C)cc1,inactive,inactive
C[C@H](CO)N1C[C@H](C)[C@H](CN(C)S(=O)(=O)c2cn(C)cn2)Oc2ccc(NS(=O)(=O)c3ccccc3)cc2C1=O,inactive,inactive
CO[C@@H]1CN(C)C(=O)c2cc(NC(=O)NC(C)C)ccc2OC[C@@H](C)N(Cc2ccc(-c3ccccn3)cc2)C[C@H]1C,inactive,inactive
CC(=O)c1ccc(S(=O)(=O)N2[C@@H]3CC[C@@H](C3)[C@H]2c2nc3cccc(OCc4ccc(F)cc4)c3[nH]2)cc1,inactive,inactive
COC(=O)CCCCCCC(=O)Nc1ccc([C@H]2O[C@H](CSc3nc(-c4ccccc4)c(-c4ccccc4)o3)C[C@H](c3ccc(NC(=O)CCCCCCC(=O)OC)cc3)O2)cc1,inactive,inactive
CN(C)CCCNC(=O)C[C@H]1CC[C@H]2[C@@H](COc3ccc(NC(=O)c4ccc5c(c4)OCO5)cc3C(=O)N2C)O1,inactive,inactive
